{
  "source": "PubChem BioAssay AID686978",
  "about": "(National Center for Advancing Translational Sciences (NCATS), 2013)",
  "note": "Among all 420,000 compounds or so, about 64,000 (15%) were called active. Inconclusive means that the source gave no clear call. Such entries were picked first, then a sample of the others. The call rests on the fitted dose curve; in most records, active means well fitted inhibition curve with a large enough effect; inconclusive means small, poorly fitted or top-dose-only effect; inactive means flat fitted curve, though single readings scatter. Potencies of inconclusive entries are left out as doubtful fits. On the % scale 0 is the no-effect control and ±100 the full control effect; potency means the concentration at half of the fitted maximal effect; tags describe the fitted curve by direction and shape.",
  "data": [
    {"assay": "qHTS for Inhibitors of human tyrosyl-DNA phosphodiesterase 1 (TDP1): qHTS in cells in absence of CPT; further: nearly all actives have a fitted effect of over 55% in size", "conditions": "DT40 Tdp1-/- hTDP1 cells, no CPT, ATP luminescence, 48 h; activity change, negative = growth inhibition: at 46.2 µM (top of the series) unless noted", "outline": "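Readout: luminescence from CellTiter-Glo after 30 min in the dark at RT. Cells: DT40 Tdp1-/- with stable hTDP1, 400/well. Exposure: compounds alone, ≥48 hr, 37 °C.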", "values": [
      {"compound": "O=C(/C=N/NC(=O)c1ccccc1Br)c1ccccc1", "activity change, negative = growth inhibition": "inconclusive: -35.3% [inhibitor]"},
      {"compound": "O=C(O)c1ccc(/C=N/Nc2nc(N3CCCCC3)nc(N3CCCCC3)n2)cc1", "activity change, negative = growth inhibition": "inactive: -9.34%"},
      {"compound": "Cc1ccc(C(=O)Nc2cnn(-c3ccc(C(=O)NCc4nc(-c5ccccc5)n[nH]4)cc3)c2)c(C)c1", "Potency": "active: 1.84 µM"},
      {"compound": "CCCS(=O)(=O)c1nc(S(=O)(=O)c2ccc(C)cc2)c(N2CCOCC2)s1", "Potency": "inconclusive [inhibitor, partial curve, poor fit]"},
      {"compound": "Cc1csc(NC(=O)[C@@H]2CCCN2C(=O)c2cccs2)n1", "activity change, negative = growth inhibition": "inconclusive: -41.1% [inhibitor]"},
      {"compound": "Cc1cc(OCc2ccc(C(=O)n3cccn3)o2)ccc1Cl", "Potency": "inconclusive [inhibitor, single point]"},
      {"compound": "O=C(NCC1CCN(S(=O)(=O)c2ccccc2)CC1)Nc1ccc(F)cc1", "Potency": "inconclusive [inhibitor, single point]"},
      {"compound": "C=CCn1c(CCc2cc(C(C)(C)C)c(O)c(C(C)(C)C)c2)n[nH]c1=S", "Potency": "inconclusive [inhibitor, single point]"},
      {"compound": "COc1ccc2ccccc2c1CN(C)Cc1ccccc1", "Potency": "inconclusive [inhibitor, partial curve]"},
      {"compound": "CCCOc1ccc(Cl)cc1CN1CCOCC1", "Potency": "inconclusive [inhibitor, single point]"},
      {"compound": "O=[N+]([O-])c1cc(-c2nc(-c3ccccc3)no2)ccc1NCC1CCCO1", "note": "(stereo unspecified)", "Potency": "inconclusive [inhibitor, single point]"},
      {"compound": "COCc1c(C(=O)OCc2c(C)noc2C)oc2ccccc12", "activity change, negative = growth inhibition": "inactive: -2.67%"},
      {"compound": "CCCS(=O)(=O)NC(=O)C1(C)CCCN(C(=O)/C=C/c2ccccc2)C1", "note": "(stereo unspecified)", "activity change, negative = growth inhibition": "inactive: 2.12%"},
      {"compound": "Cn1c(=O)c2c(nc(-n3ccnc3)n2Cc2ccc(Cl)cc2Cl)n(C)c1=O", "Potency": "inconclusive [inhibitor, partial curve]"},
      {"compound": "CCCCOC(=O)Nc1nnc(SCCOc2ccc(C)cc2)s1", "Potency": "inconclusive [inhibitor, single point]"},
      {"compound": "COc1cccc(C#Cc2c(CO)[nH]c3ccccc23)c1", "Potency": "inconclusive [inhibitor, single point]"},
      {"compound": "COc1ccccc1N(C)S(=O)(=O)c1ccc(Cl)c(C(=O)Nc2ccncc2)c1", "Potency": "inconclusive [inhibitor, partial curve, poor fit]"},
      {"compound": "COc1ccc(-c2noc(N3CCC(C(=O)NCCCN4CC(C)CC(C)C4)CC3)n2)cc1", "note": "(stereo unspecified)", "Potency": "inconclusive [inhibitor, single point]"},
      {"compound": "CCOC(=O)c1ccccc1NC(=O)N[C@@H](C)C(=O)OC", "activity change, negative = growth inhibition": "inactive: -13%"},
      {"compound": "CCN(Cc1ccncc1)C(=O)c1cc(COc2ccc(C)c(C)c2)on1", "Potency": "inconclusive [inhibitor, partial curve]"},
      {"compound": "CN1CCN(c2cc(-c3ccoc3)ncn2)CC1", "activity change, negative = growth inhibition": "inactive: -1.61%"},
      {"compound": "CCOc1ccccc1Nc1nc2ccccc2n2cnnc12", "Potency": "inconclusive [inhibitor, single point]"},
      {"compound": "NC[C@@H](O)c1ccc(O)c(O)c1", "activity change, negative = growth inhibition": "inactive: -7.91%"},
      {"compound": "CC(C)(C)CN1C(N)=NC[C@@H]1Cc1ccc(O)cc1", "activity change, negative = growth inhibition": "inactive: -5.05%"},
      {"compound": "COC(=O)c1c(N)[nH]c(C(=O)c2ccccc2)c1-c1ccc(Br)cc1", "Potency": "inconclusive [inhibitor, partial curve]"},
      {"compound": "CC(C)(C)CN1CCNC[C@H]1Cc1cccc2ccccc12", "Potency": "inconclusive [inhibitor, single point]"},
      {"compound": "CCOC(=O)C1=C(C)NC(C)=C(C(=O)OCC)C1c1ccccn1", "Potency": "inconclusive [inhibitor, single point]"},
      {"compound": "COc1ccc(/C=C2\\N=C(C)OC2=O)cc1OC", "activity change, negative = growth inhibition": "inactive: -22%"},
      {"compound": "Cc1cccc(C)c1NC(=S)N1CC(C)OC(C)C1", "note": "(stereo unspecified)", "activity change, negative = growth inhibition": "inactive: -9.18%"},
      {"compound": "COc1cc(/C=C2\\SC(=O)N(CC(=O)Nc3ccccc3F)C2=O)cc(Cl)c1O", "Potency": "active: 13 µM"},
      {"compound": "O=S(=O)(Cc1noc(-c2ccc(Cl)cc2)n1)Cc1ccco1", "activity change, negative = growth inhibition": "inactive: -16.4%"},
      {"compound": "Cn1cc(/C=N/NC(N)=S)c2ccccc21", "Potency": "active: 3.26 µM"},
      {"compound": "Cc1ccc(NC(=O)COC(=O)c2oc3ccccc3c2C)cc1S(=O)(=O)N1CCOCC1", "Potency": "inconclusive [inhibitor, single point]"},
      {"compound": "CC(C)c1nc2cc(Cl)ccc2n(Cc2ccccc2)c1=O", "Potency": "inconclusive [inhibitor, partial curve, poor fit]"},
      {"compound": "CCCNC(=O)c1onc(CSc2ccc(Cl)cc2)c1C(=O)NCCC(C)C", "Potency": "inconclusive [inhibitor, single point]"},
      {"compound": "Cc1ccc(C(=O)OC/C(O)=C(\\C#N)c2nc3ccccc3[nH]2)cc1S(=O)(=O)N1CCOCC1", "Potency": "active: 7.31 µM"},
      {"compound": "CN(C)c1ccc(/C=C/c2ccnc3ccccc23)cc1", "Potency": "active: 15.8 µM"},
      {"compound": "CCCCNS(=O)(=O)c1ccc2c(c1)oc(=O)n2CC(=O)OCC", "Potency": "inconclusive [inhibitor, single point]"},
      {"compound": "COc1ccc(C(=O)/C=C/c2ccccc2C(F)(F)F)cc1", "Potency": "active: 23.1 µM"},
      {"compound": "CCOC(=O)C(=O)C1=C(N2CCOCC2)/C(=C\\c2ccc(F)cc2)CC1", "Potency": "inconclusive [inhibitor, single point]"},
      {"compound": "CCCCOC(=O)C1=C(C)NC(=O)NC1c1cc2c(cc1Br)OCO2", "note": "(stereo unspecified)", "Potency": "active: 23.1 µM"},
      {"compound": "COCCN(C(=O)c1ccco1)C(C(=O)NC1CCCC1)c1cccs1", "note": "(stereo unspecified)", "activity change, negative = growth inhibition": "inactive: -20.5%"},
      {"compound": "COc1ccc(CC(=O)N/N=C(\\C)CC(=O)Nc2ccc3c(c2)OCCO3)cc1OC", "activity change, negative = growth inhibition": "inactive: 5.76%"},
      {"compound": "CC(=O)Nc1cccc(C(=O)N(CCc2ccccc2)Cc2ccccc2)c1", "Potency": "inconclusive [inhibitor, single point]"},
      {"compound": "COc1ccc(OC)c2c(N)c(C#N)c(C(F)(F)C(F)(F)F)nc12", "activity change, negative = growth inhibition": "inactive: 3.02%"},
      {"compound": "CCN(C(=O)CSc1ncccn1)c1cccc2ccccc12", "Potency": "inconclusive [inhibitor, single point]"},
      {"compound": "COc1cccc(/C=N/NC(=O)CCc2c(C)n[nH]c2C)c1O", "Potency": "inconclusive [inhibitor, single point]"},
      {"compound": "CCc1ccc(OCC(=O)N/N=C/c2ccc(OS(=O)(=O)c3ccc(C)cc3)c(OC)c2)cc1", "activity change, negative = growth inhibition": "inactive: 7.19%"},
      {"compound": "CC(=O)N1CCSc2ccc(S(=O)(=O)NCCc3ccc(C)cc3)cc21", "Potency": "active: 20.6 µM"},
      {"compound": "Cc1ccc(-c2cc(C(=O)NC(C)c3ccccc3)c3ccccc3n2)cc1C", "note": "(stereo unspecified)", "Potency": "inconclusive [inhibitor, single point]"},
      {"compound": "O=C(N/N=C/C=C/c1ccccc1)c1ccccn1", "activity change, negative = growth inhibition": "inactive: 0.484%"},
      {"compound": "CCCS(=O)(=O)c1ncc(Cl)c(C(=O)N2CCN(c3ccc(OC)cc3)CC2)n1", "Potency": "active: 3.66 µM"},
      {"compound": "Cc1ccc(OC(=O)CCC(=O)Nc2ccc(C(N)=O)cc2)cc1", "activity change, negative = growth inhibition": "inactive: -16.2%"},
      {"compound": "Cc1ccc(S(=O)(=O)NCCC(=O)Nc2ccc(Cl)c(Cl)c2)cc1C", "Potency": "inconclusive [inhibitor, single point]"},
      {"compound": "CC1CCN(c2ccc(NC(=O)c3cccc(Cl)c3)cc2C(=O)O)CC1", "activity change, negative = growth inhibition": "inactive: 9.12%"},
      {"compound": "CCOc1cccc(N(C(=O)CNC(=O)c2ccco2)C(C(=O)NCC2CCCO2)c2ccccc2)c1", "note": "(stereo unspecified)", "Potency": "inconclusive [inhibitor, partial curve, poor fit]"},
      {"compound": "CC1CCC(N2CCN(c3ncccn3)CC2)CC1", "note": "(stereo unspecified)", "activity change, negative = growth inhibition": "inactive: -6.55%"},
      {"compound": "O=C(CSc1nccn1-c1ccccc1)c1ccc(Cl)cc1", "Potency": "inconclusive [inhibitor, single point]"},
      {"compound": "Clc1cccc(Nc2nc(-c3ccncc3)nc3ccccc23)c1", "Potency": "inconclusive [inhibitor, partial curve]"},
      {"compound": "CCOC(=O)c1c(NC(=O)c2cccs2)sc2c1CC(C)(C)OC2", "Potency": "active: 25.9 µM"},
      {"compound": "O=C(CNC(=O)c1ccco1)Nc1ccc(F)cc1", "Potency": "inconclusive [inhibitor, single point]"},
      {"compound": "O=C(CN1CCCc2ccccc21)Nc1cc(S(=O)(=O)N2CCCC2)ccc1Cl", "Potency": "inconclusive [inhibitor, single point]"},
      {"compound": "CN(C)S(=O)(=O)n1cc(/C=C(\\NC(=O)c2ccccc2)C(=O)NCCN2CCOCC2)c2ccccc21", "activity change, negative = growth inhibition": "inactive: -13.1%"},
      {"compound": "CC(=O)Nc1ccccc1-c1nc2ccccc2n(CC(=O)c2ccc(C)c(C)c2)c1=O", "Potency": "inconclusive [inhibitor, single point]"},
      {"compound": "CCN1CCc2nc3sc(C(=O)Nc4cccnc4Cl)c(N)c3cc2C1", "Potency": "inconclusive [inhibitor, single point]"},
      {"compound": "Cn1cccc1/C=C1\\SC(=S)N(Nc2ccccc2)C1=O", "Potency": "inconclusive [inhibitor, single point]"},
      {"compound": "CS(=O)(=O)N(CC(=O)Nc1ccc2c(c1)OCCO2)Cc1ccc(Cl)cc1", "Potency": "inconclusive [inhibitor, single point]"},
      {"compound": "COc1ccccc1Oc1ccc(S(=O)(=O)NCc2ccccn2)cc1", "Potency": "active: 14.1 µM"},
      {"compound": "CC(=O)c1nnn(-c2ccc([N+](=O)[O-])cc2)c1C", "activity change, negative = growth inhibition": "inactive: -13.2%"},
      {"compound": "O=C(Nc1cccnc1)c1cc([N+](=O)[O-])ccc1Cl", "activity change, negative = growth inhibition": "inactive: -29.7%"},
      {"compound": "Cn1c(=O)cc(OCC(=O)N2CCN(c3ccccc3)CC2)c2ccccc21", "activity change, negative = growth inhibition": "inactive: 1.19%"},
      {"compound": "COc1cc(C(=O)OCCC(C)C)cc(OC)c1O", "activity change, negative = growth inhibition": "inactive: -24.3%"},
      {"compound": "COc1ccc(NC(=O)CSc2nc3ncccc3[nH]2)c(OC)c1", "Potency": "inconclusive [inhibitor, single point]"},
      {"compound": "O=C(Nc1cnccn1)Nc1ccc(Cl)cc1Cl", "Potency": "inconclusive [inhibitor, single point]"},
      {"compound": "Cc1cc(OC(C)C(=O)N(Cc2ccco2)Cc2ccccc2F)cc(C)c1Cl", "note": "(stereo unspecified)", "Potency": "active: 13 µM"},
      {"compound": "CCOC(=O)C1=C(N)OC2=C(C(=O)CC(C)(C)C2)C1C1CCCCC1", "note": "(stereo unspecified)", "Potency": "inconclusive [inhibitor, partial curve]"}
    ]}
  ]
}
